To fix the notation:
T1: GST-tagged Nup358 (996–1963) ( (mammalian), UniProt P49792 996-1963)
T1 sequence (looked up): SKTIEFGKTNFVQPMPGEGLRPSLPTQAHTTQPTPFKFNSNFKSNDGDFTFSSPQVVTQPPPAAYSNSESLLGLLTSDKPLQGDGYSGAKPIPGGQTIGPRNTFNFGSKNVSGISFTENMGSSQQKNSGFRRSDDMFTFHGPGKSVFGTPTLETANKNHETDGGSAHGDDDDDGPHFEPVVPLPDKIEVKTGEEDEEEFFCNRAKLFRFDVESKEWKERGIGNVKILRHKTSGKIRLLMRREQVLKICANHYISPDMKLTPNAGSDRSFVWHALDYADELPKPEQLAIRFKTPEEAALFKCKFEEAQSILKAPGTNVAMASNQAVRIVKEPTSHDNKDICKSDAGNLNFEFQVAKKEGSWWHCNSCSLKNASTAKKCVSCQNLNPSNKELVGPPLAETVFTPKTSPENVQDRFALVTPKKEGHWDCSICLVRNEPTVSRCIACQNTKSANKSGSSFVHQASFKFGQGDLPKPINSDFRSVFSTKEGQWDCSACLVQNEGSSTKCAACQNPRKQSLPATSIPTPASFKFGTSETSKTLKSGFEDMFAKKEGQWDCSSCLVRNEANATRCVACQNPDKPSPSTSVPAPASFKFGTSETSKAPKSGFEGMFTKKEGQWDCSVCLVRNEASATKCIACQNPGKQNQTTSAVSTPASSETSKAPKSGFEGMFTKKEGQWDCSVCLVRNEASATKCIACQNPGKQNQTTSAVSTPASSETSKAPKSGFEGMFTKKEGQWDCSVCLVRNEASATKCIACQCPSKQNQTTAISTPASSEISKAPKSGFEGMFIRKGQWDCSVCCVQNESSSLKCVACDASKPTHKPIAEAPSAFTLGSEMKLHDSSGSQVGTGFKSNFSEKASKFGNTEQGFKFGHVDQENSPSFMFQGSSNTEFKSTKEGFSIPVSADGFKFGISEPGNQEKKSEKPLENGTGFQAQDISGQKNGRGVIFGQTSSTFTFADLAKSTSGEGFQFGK

B1: importin β I178A (natural protein)
chain: not shown
B2: importin β E214A (natural protein)
chain: not shown
B3: importin β F217A/Y255A (natural protein)
chain: not shown
B4: importin β Y255A (natural protein)
chain: not shown
B5: importin β I178D (natural protein)
chain: not shown
B6: importin β F217A (natural protein)
chain: not shown
B7: importin β I178D/Y255A (natural protein)
chain: not shown
B8: importin β I263R (natural protein)
chain: not shown
B9: importin β I178A/E214A (natural protein)
chain: not shown

By Kd is commonly meant the equilibrium constant for the complex coming apart. The low end stands for higher affinity, the high end for lower affinity.

One test concerns the target T1, GST-tagged Nup358 (996–1963). The test can be described thus: ELISA. (In general: An ELISA detects its analyte on a solid surface through an enzyme-linked reagent.)
For B1, the Kd came to 245 ± 34 nM.

Another test deals with GST–RanGTP (UniProt P62826). Briefly: ELISA.
B2 had a Kd of 3.1 ± 0.3 nM.
Molecule B3 returned a dissociation constant (Kd) of 4.4 ± 0.6 nM.
The molecule B4 came in with a dissociation constant Kd of 3 ± 0.5 nM.
The same measure, in the same setting: then B5, with 4.7 ± 0.6 nM; and B6, with 4.1 ± 0.5 nM.
B7 gave a Kd of 44.1 ± 6.2 nM.
Take B8: the dissociation constant Kd was 3.9 ± 0.2 nM.
Still for that read-out and setting: then B1, with 3.6 ± 0.3 nM; and B9, with 5.1 ± 0.6 nM.

The values are drawn from PMC2172684 (The Journal of Cell Biology, 2003).
